Source: patent US20230059690A1 (published 2023)

What was measured:
cynomolgus monkey PSMA = target: T1, cynomolgus monkey PSMA (cynomolgus monkey, UniProt A0A2K5VNZ0 44-750); experiment: SPR
T1 chain: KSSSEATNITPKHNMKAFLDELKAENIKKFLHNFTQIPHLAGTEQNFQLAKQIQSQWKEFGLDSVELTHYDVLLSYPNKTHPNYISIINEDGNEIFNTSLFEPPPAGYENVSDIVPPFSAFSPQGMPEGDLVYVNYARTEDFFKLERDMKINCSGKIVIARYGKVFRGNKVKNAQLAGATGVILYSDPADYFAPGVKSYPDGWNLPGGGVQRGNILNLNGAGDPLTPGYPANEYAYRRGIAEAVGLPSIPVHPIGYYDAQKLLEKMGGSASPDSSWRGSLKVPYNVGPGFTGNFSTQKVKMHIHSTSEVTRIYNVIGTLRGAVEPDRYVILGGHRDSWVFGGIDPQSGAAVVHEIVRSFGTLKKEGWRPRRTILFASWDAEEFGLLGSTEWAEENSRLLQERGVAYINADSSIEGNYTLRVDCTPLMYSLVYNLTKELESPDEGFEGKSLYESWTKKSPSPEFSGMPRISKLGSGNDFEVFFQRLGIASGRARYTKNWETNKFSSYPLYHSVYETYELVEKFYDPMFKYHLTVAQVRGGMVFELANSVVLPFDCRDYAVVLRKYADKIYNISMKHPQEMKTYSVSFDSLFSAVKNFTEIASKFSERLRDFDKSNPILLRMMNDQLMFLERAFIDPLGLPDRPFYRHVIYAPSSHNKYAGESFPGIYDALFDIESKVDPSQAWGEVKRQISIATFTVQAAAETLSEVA

human PSMA = human PSMA (human, UniProt Q04609); experiment: SPR
Chain of human PSMA (Q04609 44-750): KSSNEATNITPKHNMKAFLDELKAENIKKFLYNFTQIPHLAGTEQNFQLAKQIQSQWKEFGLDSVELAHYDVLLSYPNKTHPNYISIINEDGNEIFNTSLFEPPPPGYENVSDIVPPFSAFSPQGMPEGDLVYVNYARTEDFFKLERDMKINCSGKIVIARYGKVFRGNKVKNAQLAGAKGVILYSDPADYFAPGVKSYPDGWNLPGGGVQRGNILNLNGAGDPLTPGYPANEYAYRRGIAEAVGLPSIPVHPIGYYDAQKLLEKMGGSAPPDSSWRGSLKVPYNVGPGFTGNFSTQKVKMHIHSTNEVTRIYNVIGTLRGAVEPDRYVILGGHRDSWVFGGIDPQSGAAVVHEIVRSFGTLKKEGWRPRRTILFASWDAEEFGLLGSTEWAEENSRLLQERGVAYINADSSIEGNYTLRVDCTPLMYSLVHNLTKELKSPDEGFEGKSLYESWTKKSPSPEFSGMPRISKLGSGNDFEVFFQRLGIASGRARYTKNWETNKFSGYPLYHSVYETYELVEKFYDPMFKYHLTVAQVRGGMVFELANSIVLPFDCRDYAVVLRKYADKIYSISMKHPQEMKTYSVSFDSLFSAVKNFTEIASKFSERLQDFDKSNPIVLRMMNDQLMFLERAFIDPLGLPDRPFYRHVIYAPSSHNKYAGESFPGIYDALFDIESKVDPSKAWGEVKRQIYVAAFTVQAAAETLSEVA

Kd (cynomolgus monkey PSMA): 47 nM
Kd (human PSMA): 68 nM
B1: cHv75-2a11.G1(L328C)k-AGL-01332-93 (other)
heavy: QVQLVESGGGVVQPGRSLRLSCAASGFTFSSYDMHWVRQAPGKGLEWVAVIWYDGSNKYYADSLKGRFTISRDNSKNTLYLQMNSLRAEDTAVYYCARVIAARTFYYYGMDVWGQGTTVTVSSASTKGPSVFPLAPSSKSTSGGTAALGCLVKDYFPEPVTVSWNSGALTSGVHTFPAVLQSSGLYSLSSVVTVPSSSLGTQTYICNVNHKPSNTKVDKKV[human IgG1 Fc with L328C (EU numbers) omitted]
light: [about 120 residues omitted][about 100 residues omitted]
modifications: AGL-01332-93 drug-linker conjugated (DAR 1.93). The examples do not state the site; the name points to the engineered cysteine L328C.
